# Test results from PubChem BioAssay AID1625 (Sanford-Burnham Center for Chemical Genomics, 2009).
# Several values for one entry are separate records, joined by “and”; a condition that tells them apart may be missing. Equal values may be shown once. The list shows a part of the results. Shown are side measurements of this screen, not its main read-out; they come without a call. Most of these compounds were active or inconclusive in the main read-out, so they are no random draw.
# Assay: up-regulation of insulin promoter-GFP reporter – imaging, high-content screening, mouse beta cells (AID 1625);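 also: total cells summed across four imaged fields per well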
# Settings: MIN6 insulin promoter-GFP reporter, measured here: cytotoxicity, nuclei count, at 5 µM
row,Structure (SMILES),cell count
1,N=C1N(/N=C/c2ccccc2)C(=Nc2ccccc2)C(=S)N1c1ccccc1,466 cells
2,Cc1ccc(S(=O)(=O)Cc2ccc(C(=O)N3CCc4ccccc4C3)o2)cc1,439 cells
3,COc1ccc(-c2c[n+]3c(n2-c2ccc(C)cc2)CCCCC3)cc1,290 cells
4,CCN(CC)c1ccc2cc(-c3nc(-c4ccc(OC)cc4)cs3)c(=O)oc2c1,1480 cells
5,CCCN(CCC)S(=O)(=O)c1ccc(C(=O)OCCN2C(=O)c3cccc4c(N5CCOCC5)ccc(c34)C2=O)cc1,1130 cells
6,COc1ccccc1-n1c(=O)[nH]c2c(C(N)=O)nc(-c3cccnc3)nc21,463 cells
7,CCc1ccc(C2C(C#N)=C(N)C(C#N)(C#N)C3=CCC(C(C)(C)C)CC32)cc1 (stereo unspecified),321 cells
8,COc1ccc(NC(=O)CSc2nnc(-c3cccs3)n2C)cc1OC,1160 cells
9,CC(=O)c1cc(F)c(N2CCCCCC2)cc1C,463 cells
10,CC(C)N1CCc2c(sc(NC(=O)c3cc4cc([N+](=O)[O-])ccc4s3)c2C(N)=O)C1,1410 cells
11,CCOC(=O)c1sc2nc(C)c3c(c2c1N)CC(C)(C)OC3,472 cells
12,CCOc1ccc(OCc2ccc(C(=O)N/N=C(\C)c3ccccn3)cc2)cc1,296 cells
13,CCCCCCCCCCCCCCCCn1cc[n+](C)c1,239 cells and 332 cells
14,O=S(=O)(Nc1cc2nc3ccccc3nc2n1Cc1ccccc1)c1ccc(Cl)cc1,1290 cells
15,CCOC(=O)Cn1c(=O)oc2cc(S(=O)(=O)NC(C)c3ccccc3)ccc21 (stereo unspecified),478 cells
16,CCN(CC)S(=O)(=O)c1cccc(C(=O)N[C@H](C(=O)O)C(C)C)c1,282 cells
17,CCOC(=O)c1[nH]c2c(c1-c1ccc(OC)cc1)C(=O)CC(c1ccc(OC)c(OC)c1)C2 (stereo unspecified),398 cells
18,O=S(=O)(Cc1ccc(Cl)cc1)c1ccccc1-c1nnc(-c2ccccc2)o1,1460 cells
19,Cc1nc2ccccc2c2oc(C(=O)Nc3ccc4c(c3)OCCO4)cc12,400 cells
20,COC(=O)c1cc(NC(=O)c2ccccc2)c(=O)oc1/C=C/Nc1ccc(Oc2ccccc2)cc1,1220 cells
21,c1ccc(-c2csc(-n3cnnn3)n2)cc1,1070 cells
22,CCN(CC)c1ccc(/C=N/N(c2ccccc2)c2ccccc2)c(O)c1,465 cells

row,Structure (SMILES),cell count
1,COC(=O)c1sc2ccccc2c1-n1cccc1C(=O)C(=O)Nc1ccc(F)cc1,1580 cells
2,Cc1ccc(NC2=C/C(=N\S(=O)(=O)c3cccs3)c3ccccc3C2=O)c(C)c1,348 cells
3,CCN(CC)c1ccc2cc(C(=O)Nc3ccccn3)c(=O)oc2c1,1230 cells
4,Cc1cc(/C=C2\NC(=S)N(C)C2=O)ccc1N1CCCC1,1460 cells
5,CCOc1ccc(-c2c[n+]3c(n2-c2ccccc2)CCCCC3)cc1,403 cells
6,Cn1ncc2c1ncn1nc(CCc3ccccc3)nc21,1470 cells
7,Cc1ccc(S(=O)(=O)Nc2ccc3ncccc3c2)cc1,341 cells
8,Cc1ccc(SCc2cc(-c3ccc(Cl)cc3)no2)cc1,1320 cells
9,N=c1c2c(n(Cc3ccccc3)c3c1CCC3)CCC2,201 cells
10,Cc1ccc(S(=O)(=O)CCSc2nc(C)cc(C(F)(F)F)c2C#N)cc1,853 cells
11,COc1cc(CNCc2ccco2)ccc1OCc1ccccc1,418 cells
12,COc1ccc2nc(SCC(=O)Nc3c(C)cccc3C)[nH]c2c1,1420 cells
13,O=[N+]([O-])c1ccc(-c2nc(C(Cl)Cl)c3ccccc3n2)cc1,333 cells
14,O=C(Nc1ccc(S(=O)(=O)N2CCOCC2)cc1)c1ccc(CN2CCc3ccccc3C2)cc1,160 cells
15,CC[n+]1c(/C=C2\Sc3ccccc3N2C)ccc2cccc(C)c21,310 cells
16,Cc1cc(C)c2nc3sc(C(=O)N4CCOCC4)c(N)c3cc2c1,393 cells
17,O=C1c2cccc3c(O)ccc(c23)C(=O)N1Cc1ccco1,1390 cells
18,COc1ccc(CN=Cc2[nH]c3ccc(Br)c(Cl)c3c2O)cc1,1780 cells
19,N#C/C(=C\c1ccc(N2CCOCC2)o1)c1nc2ccccc2[nH]1,1420 cells
20,CCN1CCN(C2=CC3=CC(=C(C#N)C#N)CCC3CC2)CC1 (stereo unspecified),1300 cells
21,OCCCNc1cc(-c2ccnc(Nc3cccc(Cl)c3)n2)ccn1,322 cells
22,Cc1ccc2[nH]c3c(N4CCN(Cc5ccc6c(c5)OCO6)CC4)ncnc3c2c1,208 cells

row,Structure (SMILES),cell count
1,O=C(/C=C/c1c(F)cccc1Cl)Nc1ccncc1,451 cells
2,Cc1ccc(/C(=N\O)c2oc3c(C)c4oc(=O)cc(C)c4cc3c2C)cc1,472 cells
3,Nc1ncnc2nc(SCCOc3ccc(Cl)cc3)[nH]c12,462 cells
4,CCn1c(SCC(=O)OC(C)C)nnc1-c1cccc(Cl)c1,288 cells
5,CCCN1CC=C2C(C#N)=C(N)C(C#N)(C#N)C(c3cccc(OC)c3OC)C2C1 (stereo unspecified),1910 cells
6,CCCCN(C)CC(O)Cn1cc(/C=C/C(=O)c2cccs2)c2ccccc21 (stereo unspecified),1290 cells
7,Cc1onc(-c2ccccc2)c1C(=O)NC(=S)NNC(=O)c1ccc(O)cc1,469 cells
8,O=C(NCc1cn2ccccc2n1)c1ccco1,1920 cells
9,NS(=O)(=O)c1cccc2cccnc12,992 cells
10,CCCCOCCCNc1ncnc2c1[nH]c1ccccc12,432 cells
11,N#C/C(=C\c1ccc(N2CCCCC2)o1)C(N)=O,1390 cells
12,O=c1c(Cl)c(Cl)cnn1Cc1nnc(-c2ccccc2Br)o1,200 cells
13,CCC(CO)[n+]1c(C)cc(/C=C2\Sc3ccccc3N2Cc2ccccc2)cc1C (stereo unspecified),475 cells
14,O=C(Nc1ccc2c(c1)CCC2)C1CCN(c2c3c(nc4ncnn24)CCC3)CC1,307 cells
15,CCOC(=O)CNC(=O)/C=C/c1c(Cl)cccc1Cl,380 cells
16,CCCCCCCCn1c2c(c(=N)c3c1CCC3)CCCC2,302 cells
17,CCC(=O)NC(c1ccccc1OC)c1ccc2cccnc2c1O (stereo unspecified),251 cells
18,COc1ccc2nc(SCC(C)=O)c(C#N)cc2c1,1120 cells
19,CC(C)(C)C(=O)/C(=C\c1cccc([N+](=O)[O-])c1)n1cncn1,225 cells
20,Cc1ccc(-c2c[n+](Cc3ccc(Cl)cc3)c3n2CCC3)cc1,421 cells
21,Cc1ccc([N+](=O)[O-])cc1NC(=O)c1cccs1,1270 cells
22,CCOC(=O)c1cnc2sc3c(n2c1=O)CCCC3,301 cells

row,Structure (SMILES),cell count
1,O=C(Nc1nnc(-c2ccccc2)o1)Nc1ccccc1Cl,1820 cells
2,Cc1ccc(/C=N/NC(=O)c2cc(C3CC3)nc3ccccc23)o1,499 cells
3,O=C1C(=O)c2c(C(=O)c3ccccc3)coc2-c2ccccc21,243 cells
4,CCOc1ccccc1-c1c2cc(O)c(=O)cc-2oc2cc(O)c(O)cc12,1500 cells
5,Cc1cccc(N=Nc2ccc(O)c3ncccc23)c1,420 cells
6,CCOC(=O)c1sc(NC(=O)c2sccc2C)cc1C,1020 cells
7,CCOC(=O)c1nn(-c2ccc(Cl)cc2Cl)c(=N)c(C#N)c1C,993 cells
8,COc1ccc(Cl)cc1NC(=O)c1c(-c2ccccc2)noc1C,1330 cells
9,Cc1ccc(C[n+]2cc(-c3ccc(Cl)cc3)n3c2CCC3)cc1,401 cells
10,CC(=O)Nc1ccc(NC2=C/C(=N/S(=O)(=O)c3cccs3)c3ccccc3C2=O)cc1,481 cells
11,Cc1cc(N2CCCC2)ccc1/C=C1\NC(=S)N(C)C1=O,1340 cells
12,Clc1ccc(-c2cn(-c3ccc(Cl)cc3)c3[n+]2CCCCC3)cc1,430 cells
13,CCOC(=O)c1[nH]c2ccc(OCC)cc2c1NC(=O)CN1CCCC(C)C1 (stereo unspecified),432 cells
14,Cc1oc(C)c2c(=O)ccc3c(c12)OC(N)=C(C#N)C3c1ccccc1 (stereo unspecified),1580 cells
15,COc1cccc(F)c1C(C[N+](=O)[O-])c1c(N)n(C)c(=O)n(C)c1=O (stereo unspecified),291 cells
16,CC[n+]1c(C)n(-c2ccccc2)c2ccc(NC(C)=O)cc21,223 cells
17,CCN(CC)S(=O)(=O)c1ccc(/C=C/C(=O)Nc2ccc(F)c(F)c2F)cc1,441 cells
18,COc1ccc(N/N=C(/N=Nc2nc(C)cc(=O)[nH]2)c2ccccc2)cc1,291 cells
19,CN1CCS/C1=C/C=C1/SC(=S)N(Cc2ccccc2)C1=O,1200 cells
20,Cc1ccc(NC(=O)COC(=O)c2csc3c2CCC(C)C3)cc1S(=O)(=O)N1CCCCC1 (stereo unspecified),340 cells
21,COc1cc(C(=O)Oc2cccc(Nc3ncnc4ccccc34)c2)cc(OC)c1OC,420 cells
22,O=C(/C=C/c1ccco1)NC(=S)Nc1ccccc1N1CCCC1,1430 cells

row,Structure (SMILES),cell count
1,CN1CCN(C2=CC3=CC(=C(C#N)C#N)CCC3CC2)CC1 (stereo unspecified),958 cells
2,N#CC1CC(c2ccc([N+](=O)[O-])cc2)=NN1c1ccc([N+](=O)[O-])cc1 (stereo unspecified),1160 cells
3,COC(=O)Cc1c(C)nc2nc(NCc3ccccc3OC)[nH]n2c1=O,1690 cells
4,CCN1/C(=C/C=C/c2oc3ccc(-c4ccccc4)cc3[n+]2CC)Oc2ccc(-c3ccccc3)cc21,309 cells
5,O=C(c1ccc(CSc2nc3ccncc3[nH]2)cc1)N1CCN(c2cccc(Cl)c2)CC1,480 cells
6,C/C(=N\Nc1ccc([N+](=O)[O-])cc1)c1cc2ccccc2o1,1530 cells
7,COc1ccc(OC)c(S(=O)(=O)Nc2ccc(Oc3ccccc3)cc2)c1,447 cells
8,CC[n+]1c(/C=C/Nc2ccccc2)sc2ccccc21,436 cells
9,CCOC(=O)CC1C(=O)NCCN1c1nc2c(C)cccn2c(=O)c1/C=C1\SC(=S)N(C(C)CC)C1=O (stereo unspecified),862 cells
10,Cc1ccccc1-n1ncc2c(SCC(=O)NCc3cccs3)ncnc21,1460 cells
11,Cc1ccc(-n2c(-c3ccccc3)c[n+]3c2CCc2ccccc2-3)c(C)c1,276 cells
12,O=C(Nc1nc2ccccc2s1)C1CCN(S(=O)(=O)c2cc([N+](=O)[O-])ccc2Cl)CC1,312 cells
13,N#C/C(=C\c1ccc(-c2ccc(C(=O)O)cc2)o1)c1nc2ccccc2[nH]1,1480 cells
14,CC(C)CCNC(=O)C(=O)NC1CCCC1,455 cells
15,c1ccc(-c2ccc(-c3nccc4ccccc34)[nH]2)cc1,1120 cells
16,Cc1ccc2nc(NC(=O)C3CCN(S(=O)(=O)c4cc([N+](=O)[O-])ccc4Cl)CC3)sc2c1,402 cells
17,CSC1=NCCN1C(=O)c1c(F)cccc1F,278 cells
18,CC(=O)O[C@H]1C(=O)[C@@]2(C)[C@H]([C@H](OC(=O)c3ccccc3)[C@]3(O)C[C@H](OC(=O)[C@H](O)C(NC(=O)c4ccccc4)c4ccccc4)C(C)=C1C3(C)C)[C@]1(OC(C)=O)CO[C@@H]1C[C@@H]2O (stereo partly specified),486 cells
